# Results taken from PMC12820563, “FoxP3 forms a head-to-head dimer in vivo and stabilizes its multimerization on adjacent microsatellites”.
# Some of the results follow.
# Target: T1, MBP-FoxP1dN (Mus musculus, UniProt P58462 326-579)
# T1 sequence: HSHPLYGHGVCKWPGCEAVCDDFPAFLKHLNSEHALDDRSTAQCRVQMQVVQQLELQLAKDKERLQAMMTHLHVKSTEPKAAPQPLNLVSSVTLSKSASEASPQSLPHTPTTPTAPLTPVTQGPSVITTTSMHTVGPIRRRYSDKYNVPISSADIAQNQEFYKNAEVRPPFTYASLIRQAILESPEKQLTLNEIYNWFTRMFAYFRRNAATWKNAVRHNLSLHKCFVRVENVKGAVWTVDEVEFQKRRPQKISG
# Assay: PD-seq (MBP pull-down with sequencing); 20 mM Tris-HCl pH 7.5, 100 mM NaCl, 1.5 mM MgCl2, 0.4 uM protein, 0.1 uM dsDNA library, 30 min, room temperature, amylose pull-down; high values mean tight binding
# Conditions: protein: recombinant; tags: His6-MBP; chain copies: 2; dsDNA, one strand shown
# Summary of the method: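 Binding is given as reads-per-million enrichment, pull-down over input, with replicates pooled. The bait was an N-terminus-lacking mouse FoxP3 or FoxP1 fragment with a His6-MBP tag, expressed in E. coli and used at 0.4 µM with 0.1 µM Klenow-filled degenerate double-stranded DNA library for 30 min at room temperature in Tris pH 7.5 buffer with NaCl and MgCl2. Amylose resin pull-down with three washes was followed by proteinase K release, PCR barcoding and Illumina sequencing.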
row,Sequence,binding signal
1,GATGATTGTTCTCCCAGCTGATGAATTCAGTAGGTCGAGTAAACAAATTTTCCTAATCTTTCTGTTCAAGCGCCATCTAC,0.829 RPM ratio (pull-down/input)
2,GATGATTGTTCTCCCAGCTGATGAATTCTGGGCATCGAGTAAACAAATTTTCCTAATCTTTCTGTTCAAGCGCCATCTAC,0.86 RPM ratio (pull-down/input)
3,GATGATTGTTCTCCCAGCTGATGAATTTTCAACATCGAGTAAACAAATTTTCCTAATCTTTCTGTTCAAGCGCCATCTAC,1.14 RPM ratio (pull-down/input)
4,GATGATTGTTCTCCCAGCTGATGAATTCACCCACTCGAGTAAACAAATTTTCCTAATCTTTCTGTTCAAGCGCCATCTAC,0.938 RPM ratio (pull-down/input)
5,GATGATTGTTCTCCCAGCTGATGAATTATTGGTTTCGAGTAAACAAATTTTCCTAATCTTTCTGTTCAAGCGCCATCTAC,1.39 RPM ratio (pull-down/input)
6,GATGATTGTTCTCCCAGCTGATGAATTATCTCCTTCGAGTAAACAAATTTTCCTAATCTTTCTGTTCAAGCGCCATCTAC,0.922 RPM ratio (pull-down/input)
7,GATGATTGTTCTCCCAGCTGATGAATTATAACGATCGAGTAAACAAATTTTCCTAATCTTTCTGTTCAAGCGCCATCTAC,1.01 RPM ratio (pull-down/input)
8,GATGATTGTTCTCCCAGCTGATGAATTCCTACTTTCGAGTAAACAAATTTTCCTAATCTTTCTGTTCAAGCGCCATCTAC,0.928 RPM ratio (pull-down/input)
9,GATGATTGTTCTCCCAGCTGATGAATTTAAGTCGTCGAGTAAACAAATTTTCCTAATCTTTCTGTTCAAGCGCCATCTAC,0.863 RPM ratio (pull-down/input)
10,GATGATTGTTCTCCCAGCTGATGAATTTGGGATCTCGAGTAAACAAATTTTCCTAATCTTTCTGTTCAAGCGCCATCTAC,0.788 RPM ratio (pull-down/input)
11,GATGATTGTTCTCCCAGCTGATGAATTACGTGACTCGAGTAAACAAATTTTCCTAATCTTTCTGTTCAAGCGCCATCTAC,1.01 RPM ratio (pull-down/input)
12,GATGATTGTTCTCCCAGCTGATGAATTGCCCATCTCGAGTAAACAAATTTTCCTAATCTTTCTGTTCAAGCGCCATCTAC,0.881 RPM ratio (pull-down/input)
13,GATGATTGTTCTCCCAGCTGATGAATTGGGGCAGTCGAGTAAACAAATTTTCCTAATCTTTCTGTTCAAGCGCCATCTAC,0.806 RPM ratio (pull-down/input)
14,GATGATTGTTCTCCCAGCTGATGAATTAATGTGTTCGAGTAAACAAATTTTCCTAATCTTTCTGTTCAAGCGCCATCTAC,1.45 RPM ratio (pull-down/input)
15,GATGATTGTTCTCCCAGCTGATGAATTACGACCGTCGAGTAAACAAATTTTCCTAATCTTTCTGTTCAAGCGCCATCTAC,0.887 RPM ratio (pull-down/input)
16,GATGATTGTTCTCCCAGCTGATGAATTGTGGTTGTCGAGTAAACAAATTTTCCTAATCTTTCTGTTCAAGCGCCATCTAC,1.4 RPM ratio (pull-down/input)

row,Sequence,binding signal
1,GATGATTGTTCTCCCAGCTGATGAATTAGTGGAATCGAGTAAACAAATTTTCCTAATCTTTCTGTTCAAGCGCCATCTAC,0.962 RPM ratio (pull-down/input)
2,GATGATTGTTCTCCCAGCTGATGAATTAAAGGTTTCGAGTAAACAAATTTTCCTAATCTTTCTGTTCAAGCGCCATCTAC,0.867 RPM ratio (pull-down/input)
3,GATGATTGTTCTCCCAGCTGATGAATTAAACTTTTCGAGTAAACAAATTTTCCTAATCTTTCTGTTCAAGCGCCATCTAC,1.02 RPM ratio (pull-down/input)
4,GATGATTGTTCTCCCAGCTGATGAATTCACATAATCGAGTAAACAAATTTTCCTAATCTTTCTGTTCAAGCGCCATCTAC,1.18 RPM ratio (pull-down/input)
5,GATGATTGTTCTCCCAGCTGATGAATTCTTCTCATCGAGTAAACAAATTTTCCTAATCTTTCTGTTCAAGCGCCATCTAC,0.939 RPM ratio (pull-down/input)
6,GATGATTGTTCTCCCAGCTGATGAATTGCGGAGGTCGAGTAAACAAATTTTCCTAATCTTTCTGTTCAAGCGCCATCTAC,0.93 RPM ratio (pull-down/input)
7,GATGATTGTTCTCCCAGCTGATGAATTAGGTTTCTCGAGTAAACAAATTTTCCTAATCTTTCTGTTCAAGCGCCATCTAC,0.833 RPM ratio (pull-down/input)
8,GATGATTGTTCTCCCAGCTGATGAATTGTTGGATTCGAGTAAACAAATTTTCCTAATCTTTCTGTTCAAGCGCCATCTAC,1.15 RPM ratio (pull-down/input)
9,GATGATTGTTCTCCCAGCTGATGAATTCCGAACGTCGAGTAAACAAATTTTCCTAATCTTTCTGTTCAAGCGCCATCTAC,0.791 RPM ratio (pull-down/input)
10,GATGATTGTTCTCCCAGCTGATGAATTACTCGCATCGAGTAAACAAATTTTCCTAATCTTTCTGTTCAAGCGCCATCTAC,1.18 RPM ratio (pull-down/input)
11,GATGATTGTTCTCCCAGCTGATGAATTATGTTCATCGAGTAAACAAATTTTCCTAATCTTTCTGTTCAAGCGCCATCTAC,1.04 RPM ratio (pull-down/input)
12,GATGATTGTTCTCCCAGCTGATGAATTTATTGTATCGAGTAAACAAATTTTCCTAATCTTTCTGTTCAAGCGCCATCTAC,1.6 RPM ratio (pull-down/input)
13,GATGATTGTTCTCCCAGCTGATGAATTGTGCTGTTCGAGTAAACAAATTTTCCTAATCTTTCTGTTCAAGCGCCATCTAC,1.3 RPM ratio (pull-down/input)
14,GATGATTGTTCTCCCAGCTGATGAATTGGTGGCGTCGAGTAAACAAATTTTCCTAATCTTTCTGTTCAAGCGCCATCTAC,0.963 RPM ratio (pull-down/input)
15,GATGATTGTTCTCCCAGCTGATGAATTAGCGCTTTCGAGTAAACAAATTTTCCTAATCTTTCTGTTCAAGCGCCATCTAC,0.991 RPM ratio (pull-down/input)
